Experimental data from US10363239B2, “Method for inhibiting growth of cancer cells” (Pain Therapeutics, Inc., priority 2013, dated 2019).

Tested on: BxPC3 pancreatic cancer cell implants
Experiment: Xenograft tumor size study
Conditions: oral gavage twice daily at 1 and 10 mg/kg

Structure (SMILES): CN1CCC2(CC1)NCC(=O)N2Cc1ccccc1 [Compound C0105]
- Tumor size change from baseline: shrank tumors from their original baselines
